From paper PMC12597282, “Deciphering mutational effects on inducible NO synthase conformational dynamics via quantitative cross-linking mass spectrometry and AlphaFold2 subsampling” (The Journal of Biological Chemistry, 2025)

What was measured:
[1] = target: the molecule itself; assay: cross-linking; DSBU 250 uM with 5 uM iNOS oxyFMN (co-purified with CaM), 20 mM HEPES, 100 mM NaCl, 1 mM CaCl2, pH 7.5, 30 min, room temperature; SDS-PAGE, dimeric band digested in gel; LC-MS/MS on timsTOF (DDA-PASEF, then PRM-PASEF for quantitation), lysine-lysine cross-links only
calmodulin = target: T1, calmodulin (UniProt P0DP23); assay: as above; conditions: both partners purified
T1 construct: calmodulin; also called CaM; source: E. coli, coexpressed with iNOS oxyFMN, purified as iNOS-CaM complex

binding result (calmodulin): binds
B1: E546N mutant human inducible NOS oxygenase/FMN (oxyFMN) construct (domain or fragment)
chain: not shown
notes: human inducible nitric oxide synthase (iNOS), oxyFMN construct, […] in full-length iNOS, with E546N on the FMN domain surface; Dimeric band after cross-linking was analysed; also called E546N human iNOS oxyFMN
log2 fold-change (E546N/wt) of the abundance of cross-link 105–689 heme–FMN (inter) [1]: -1.86 log2(E546N/wt) | log2 fold-change (E546N/wt) of the abundance of cross-link 155–607 heme–FMN (inter) [1]: -2.08 log2(E546N/wt) | log2 fold-change (E546N/wt) of the abundance of cross-link 158–607 heme–FMN (inter) [1]: -1.16 log2(E546N/wt)
